Source: article PMC3981784 (PLoS ONE, 2014)

Tests used:
[1] = tested on: A/HK/8/68 (H3N2); experiment: Hemagglutination inhibition assay with chicken red blood cells; conditions: Influenza A virus, H3N2, Erythrocyte, read-out: EC50, inhibition of virus-induced hemagglutination
[2] = tested on: A/PR/8/34 (H1N1); experiment: as above; conditions: Influenza A virus, Erythrocyte, read-out: EC50, inhibition of virus-induced hemagglutination
[3] = tested on: influenza viruses A/WSN/33(H1N1), A/PR/8/34(H1N1), and A/HK/8/68(H3N2); experiment: Plaque reduction assay on MDCK cells; format: cell-based, influenza A virus; conditions: virus pre-incubated with sample on ice 1 hour, three strains
[4] = tested on: A/WSN/33(H1N1), A/PR/8/34(H1N1), and A/HK/8/68(H3N2); experiment: Hemagglutination inhibition assays, result in words for the three virus subtypes (Fig. 1B)
[5] = tested on: recombinant HA of A/Puerto Rico/8/1934 (H1N1), A/California/04/2009 (H1N1), A/Netherlands/219/03 (H7N7), and A/Anhui/1/2005 (H5N1); conditions: HA incubated on ice 30 min with compound; four HA subtypes

**Q.** What does the source list for `O=c1oc2c(O)c(O)cc3c(=O)oc4c(O)c(O)cc1c4c23` [EA, Ellagic acid]?
**A.** EC50 [1]: 781 nM; EC50 [2]: 418 ± 370 nM

**Q.** With `O=C(O[C@@H]1Cc2c(O)cc(O)cc2O[C@@H]1c1cc(O)c(O)c(O)c1)c1cc(O)c(O)c(O)c1` [EGCG, (−)-epigallocatechin-3-gallate] as the compound, how does the EC50 [1] read?
**A.** Its EC50 is 731 nM.

**Q.** What about the EC50 [2] of the same compound?
**A.** The EC50 was 307 ± 260 nM.

**Q.** For `O=C(O)c1cc(O)c(O)c(O)c1` [GA, Gallic acid], which “effect on virus titers (viral infectivity)” value (“effect on virus titers” for short) [3] is on record?
**A.** The value was “does not show inhibitory effect on virus titers”.

**Q.** And the EC50 [1]?
**A.** The EC50 was over 50000 nM.

**Q.** What about the EC50 [2] of the same compound?
**A.** Its EC50 is over 50000 nM.

**Q.** What about the “inhibition of virus-induced hemagglutination (in words)” value [4] of the same compound?
**A.** The value was “cannot inhibit virus-induced hemagglutination”.

**Q.** With `O=C(OC[C@H]1O[C@@H](OC(=O)c2cc(O)c(O)c(O)c2)[C@H](OC(=O)c2cc(O)c(O)c(O)c2)[C@@H](OC(=O)c2cc(O)c(O)c(O)c2)[C@@H]1OC(=O)c1cc(O)c(O)c(O)c1)c1cc(O)c(O)c(O)c1` [PGG, penta-galloyl-glucose] as the compound, how does the “effect on virus titers” value [3] read?
**A.** Its value is “significantly reduced the virus titers”.

**Q.** And the “HA aggregation on native PAGE (HA polymer formation)” value [5]?
**A.** The value was “concentration of HA polymer increases while the concentration of the incubated PGG increases”.

**Q.** And the EC50 [1]?
**A.** The EC50 was 202 ± 206 nM.

**Q.** And the EC50 [2]?
**A.** The EC50 was 4 ± 4 nM.

**Q.** How did the “effect on virus titers” value [3] turn out when `O=C(OC[C@H]1O[C@@H](OC(=O)c2cc(O)c(O)c(O)c2)[C@H](OC(=O)c2cc(O)c(O)c(O)c2)[C@@H](OC(=O)c2cc(O)c(O)c(O)c2)[C@@H]1O)c1cc(O)c(O)c(O)c1` [TGG, 1,2,3,6-Tetra-O-galloyl-beta-D-glucose] was run?
**A.** The value was “significantly reduced the virus titers”.

**Q.** What about the EC50 [1] of the same compound?
**A.** Its EC50 is 195 nM.

**Q.** What about the EC50 [2] of the same compound?
**A.** The EC50 was 1 ± 2 nM.
